Results published in the supplement of paper PMC10369915.
The other results are listed elsewhere or left out. No stated cut-off is given here; in the data, active = 3.2 or more and inactive = the rest. Most of these values are background signal.

These binders were tested against SHP2 C-SH2 domain E139D (assay: enrichment score (SH2-bound / input frequency) (ratio); bacterial display of known human phosphotyrosine sites (pTyr-Var adds point mutants) read by sequencing; higher = stronger binding; tyrosines were phosphorylated by kinases first). Settings: peptide library: Human pTyr.
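Further: displayed peptides selected on beads carrying the immobilized SH2 domain, with library peptides lacking any tyrosine serving as negative controls.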

| Binder | enrichment score |
| --- | --- |
| ERADLIAYLKKATNE [CYC_HUMAN_98] | inactive: 0.917 |
| KVMENFIYESMRYQP [CYP19A1_HUMAN_361] | inactive: 0.926 |
| KDLFQVIYNVKKKEE [DAB2_HUMAN_170] | inactive: 2.31 |
| SVVTQDDYFKDKRVH [DAZL_HUMAN_276] | inactive: 1.01 |
| TGAESGEYEMLGEGL [DCTN2_HUMAN_86_YA] | inactive: 0.753 |
| NLYAGDYYRVQGRAV [DDR1_HUMAN_797] | inactive: 1.06 |
| DDRGRSDYDGIGSRG [DDX3X_HUMAN_104] | inactive: 0.621 |
| EDEDDEDYVPAVPLR [DDX41_HUMAN_33_YA] | inactive: 0.914 |
| DIRTIFSYFKGQRQT [DDX41_HUMAN_364] | inactive: 2.33 |
| DVIQEVEYVKEEAKM [DDX41_HUMAN_414] | inactive: 1.14 |
| AEDFLKDYIHINIGA [DDX5_HUMAN_297] | inactive: 2.56 |
| SMAIHEVYQELIQDV [DEFI6_HUMAN_210] | inactive: 1.07 |
| KSLDGALYDDEDDDD [DEN1B_HUMAN_520] | inactive: 1.04 |
| TDQNSDGYCQTGTMS [DESP_HUMAN_56] | inactive: 0.78 |
| SEKKPSKYPLCSADA [DIDO1_HUMAN_1244] | inactive: 1.14 |
| AQYQPEDYARFEAKI [DLG2_HUMAN_505] | inactive: 0.787 |
| GQYNDNLYGTSVQSV [DLG2_HUMAN_755] | inactive: 0.606 |
| GQANDNLYGTSVQSV [DLG2_HUMAN_755_YA] | inactive: 0.612 |

The binders below were run against SHP2 C-SH2 domain wild-type in the same assay as above. Settings: peptide library: Human pTyr.

| Binder | enrichment score |
| --- | --- |
| ERADLIAYLKKATNE [CYC_HUMAN_98] | inactive: 0.842 |
| KVMENFIYESMRYQP [CYP19A1_HUMAN_361] | inactive: 0.969 |
| KDLFQVIYNVKKKEE [DAB2_HUMAN_170] | inactive: 2.21 |
| SVVTQDDYFKDKRVH [DAZL_HUMAN_276] | inactive: 0.88 |
| TGAESGEYEMLGEGL [DCTN2_HUMAN_86_YA] | inactive: 0.506 |
| NLYAGDYYRVQGRAV [DDR1_HUMAN_797] | inactive: 0.915 |
| DDRGRSDYDGIGSRG [DDX3X_HUMAN_104] | inactive: 0.628 |
| EDEDDEDYVPAVPLR [DDX41_HUMAN_33_YA] | inactive: 0.715 |
| DIRTIFSYFKGQRQT [DDX41_HUMAN_364] | inactive: 2.45 |
| DVIQEVEYVKEEAKM [DDX41_HUMAN_414] | inactive: 0.88 |
| AEDFLKDYIHINIGA [DDX5_HUMAN_297] | inactive: 2.45 |
| SMAIHEVYQELIQDV [DEFI6_HUMAN_210] | inactive: 0.868 |
| KSLDGALYDDEDDDD [DEN1B_HUMAN_520] | inactive: 0.967 |
| TDQNSDGYCQTGTMS [DESP_HUMAN_56] | inactive: 0.889 |
| SEKKPSKYPLCSADA [DIDO1_HUMAN_1244] | inactive: 0.884 |
| AQYQPEDYARFEAKI [DLG2_HUMAN_505] | inactive: 0.706 |
| GQYNDNLYGTSVQSV [DLG2_HUMAN_755] | inactive: 0.477 |
| GQANDNLYGTSVQSV [DLG2_HUMAN_755_YA] | inactive: 0.535 |

These binders were tested against SHP2 N-SH2 domain L43F in the same assay as above. Settings: peptide library: Human pTyr.

| Binder | enrichment score |
| --- | --- |
| ERADLIAYLKKATNE [CYC_HUMAN_98] | inactive: 0.721 |
| KVMENFIYESMRYQP [CYP19A1_HUMAN_361] | inactive: 0.858 |
| KDLFQVIYNVKKKEE [DAB2_HUMAN_170] | inactive: 2.29 |
| SVVTQDDYFKDKRVH [DAZL_HUMAN_276] | inactive: 0.923 |
| TGAESGEYEMLGEGL [DCTN2_HUMAN_86_YA] | inactive: 0.696 |
| NLYAGDYYRVQGRAV [DDR1_HUMAN_797] | inactive: 0.812 |
| EDEDDEDYVPAVPLR [DDX41_HUMAN_33_YA] | inactive: 0.631 |
| DIRTIFSYFKGQRQT [DDX41_HUMAN_364] | inactive: 2.23 |
| DVIQEVEYVKEEAKM [DDX41_HUMAN_414] | inactive: 1.05 |
| AEDFLKDYIHINIGA [DDX5_HUMAN_297] | inactive: 1.57 |
| SMAIHEVYQELIQDV [DEFI6_HUMAN_210] | inactive: 1.29 |
| KSLDGALYDDEDDDD [DEN1B_HUMAN_520] | inactive: 0.695 |
| TDQNSDGYCQTGTMS [DESP_HUMAN_56] | inactive: 0.739 |
| SEKKPSKYPLCSADA [DIDO1_HUMAN_1244] | inactive: 0.806 |
| AQYQPEDYARFEAKI [DLG2_HUMAN_505] | inactive: 0.797 |
| GQYNDNLYGTSVQSV [DLG2_HUMAN_755] | inactive: 0.594 |
| GQANDNLYGTSVQSV [DLG2_HUMAN_755_YA] | inactive: 0.52 |

These binders were tested against SHP2 N-SH2 domain T42A in the same assay as above. Settings: peptide library: Human pTyr.

| Binder | enrichment score |
| --- | --- |
| ERADLIAYLKKATNE [CYC_HUMAN_98] | inactive: 0.681 |
| KVMENFIYESMRYQP [CYP19A1_HUMAN_361] | inactive: 0.836 |
| KDLFQVIYNVKKKEE [DAB2_HUMAN_170] | inactive: 2.38 |
| SVVTQDDYFKDKRVH [DAZL_HUMAN_276] | inactive: 0.819 |
| TGAESGEYEMLGEGL [DCTN2_HUMAN_86_YA] | inactive: 0.622 |
| NLYAGDYYRVQGRAV [DDR1_HUMAN_797] | inactive: 0.685 |
| DDRGRSDYDGIGSRG [DDX3X_HUMAN_104] | inactive: 0.59 |
| EDEDDEDYVPAVPLR [DDX41_HUMAN_33_YA] | inactive: 0.88 |
| DIRTIFSYFKGQRQT [DDX41_HUMAN_364] | inactive: 2.02 |
| DVIQEVEYVKEEAKM [DDX41_HUMAN_414] | inactive: 0.933 |
| AEDFLKDYIHINIGA [DDX5_HUMAN_297] | inactive: 3.07 |
| SMAIHEVYQELIQDV [DEFI6_HUMAN_210] | inactive: 0.95 |
| KSLDGALYDDEDDDD [DEN1B_HUMAN_520] | inactive: 0.987 |
| TDQNSDGYCQTGTMS [DESP_HUMAN_56] | inactive: 0.71 |
| SEKKPSKYPLCSADA [DIDO1_HUMAN_1244] | inactive: 0.988 |
| AQYQPEDYARFEAKI [DLG2_HUMAN_505] | inactive: 0.657 |
| GQYNDNLYGTSVQSV [DLG2_HUMAN_755] | inactive: 0.473 |
| GQANDNLYGTSVQSV [DLG2_HUMAN_755_YA] | inactive: 0.501 |

What follows are binders tested against SHP2 N-SH2 domain T52S in the same assay as above. Settings: peptide library: Human pTyr.

| Binder | enrichment score |
| --- | --- |
| ERADLIAYLKKATNE [CYC_HUMAN_98] | inactive: 0.899 |
| KVMENFIYESMRYQP [CYP19A1_HUMAN_361] | inactive: 0.771 |
| KDLFQVIYNVKKKEE [DAB2_HUMAN_170] | inactive: 2.45 |
| SVVTQDDYFKDKRVH [DAZL_HUMAN_276] | inactive: 0.899 |
| TGAESGEYEMLGEGL [DCTN2_HUMAN_86_YA] | inactive: 0.631 |
| NLYAGDYYRVQGRAV [DDR1_HUMAN_797] | inactive: 0.797 |
| DDRGRSDYDGIGSRG [DDX3X_HUMAN_104] | inactive: 0.494 |
| EDEDDEDYVPAVPLR [DDX41_HUMAN_33_YA] | inactive: 0.858 |
| DIRTIFSYFKGQRQT [DDX41_HUMAN_364] | inactive: 1.83 |
| DVIQEVEYVKEEAKM [DDX41_HUMAN_414] | inactive: 1.17 |
| AEDFLKDYIHINIGA [DDX5_HUMAN_297] | active: 3.84 |
| SMAIHEVYQELIQDV [DEFI6_HUMAN_210] | inactive: 1.01 |
| KSLDGALYDDEDDDD [DEN1B_HUMAN_520] | inactive: 1.05 |
| TDQNSDGYCQTGTMS [DESP_HUMAN_56] | inactive: 0.81 |
| SEKKPSKYPLCSADA [DIDO1_HUMAN_1244] | inactive: 0.939 |
| AQYQPEDYARFEAKI [DLG2_HUMAN_505] | inactive: 0.993 |
| GQYNDNLYGTSVQSV [DLG2_HUMAN_755] | inactive: 0.49 |
| GQANDNLYGTSVQSV [DLG2_HUMAN_755_YA] | inactive: 0.53 |

What follows are binders tested against SHP2 N-SH2 domain wild-type in the same assay as above. Settings: peptide library: Human pTyr.

| Binder | enrichment score |
| --- | --- |
| ERADLIAYLKKATNE [CYC_HUMAN_98] | inactive: 0.906 |
| KVMENFIYESMRYQP [CYP19A1_HUMAN_361] | inactive: 1.12 |
| KDLFQVIYNVKKKEE [DAB2_HUMAN_170] | active: 3.22 |
| SVVTQDDYFKDKRVH [DAZL_HUMAN_276] | inactive: 1.09 |
| TGAESGEYEMLGEGL [DCTN2_HUMAN_86_YA] | inactive: 0.658 |
| NLYAGDYYRVQGRAV [DDR1_HUMAN_797] | inactive: 0.916 |
| DDRGRSDYDGIGSRG [DDX3X_HUMAN_104] | inactive: 0.436 |
| EDEDDEDYVPAVPLR [DDX41_HUMAN_33_YA] | inactive: 0.837 |
| DIRTIFSYFKGQRQT [DDX41_HUMAN_364] | inactive: 2.68 |
| DVIQEVEYVKEEAKM [DDX41_HUMAN_414] | inactive: 1.1 |
| AEDFLKDYIHINIGA [DDX5_HUMAN_297] | inactive: 1.82 |
| SMAIHEVYQELIQDV [DEFI6_HUMAN_210] | inactive: 1.06 |
| KSLDGALYDDEDDDD [DEN1B_HUMAN_520] | inactive: 1.07 |
| TDQNSDGYCQTGTMS [DESP_HUMAN_56] | inactive: 0.482 |
| SEKKPSKYPLCSADA [DIDO1_HUMAN_1244] | inactive: 1.21 |
| AQYQPEDYARFEAKI [DLG2_HUMAN_505] | inactive: 0.859 |
| GQYNDNLYGTSVQSV [DLG2_HUMAN_755] | inactive: 0.463 |
| GQANDNLYGTSVQSV [DLG2_HUMAN_755_YA] | inactive: 0.561 |
